In PMC11149917, “Translational and Therapeutic Evaluation of RAS-GTP Inhibition by RMC-6236 in RAS-Driven Cancers” (Cancer Discovery, 2024):
The source gives many values for each of these; only a part stands here.

Test system: PRISM panel of 845 cancer cell lines
Test: PRISM assay
Format: cell-based, human
Description: The PRISM cell set comprised 845 cell lines representing more than 45 lineages (see Supplementary Table S1 for cell line information), which largely overlapped with the Cancer Cell Line Encyclopedia; https://portals.broadinstitute.org/ccle). Cell lines were grown in RPMI without phenol red and supplemented with 10% or 20% FBS for adherent and suspended lines, respectively. Parental cell lines were stably infected with a unique 24-nucleotide DNA barcode via lentiviral transduction and blasticidin selection. After selection, barcoded cell lines were expanded and subjected to quality control (Mycoplasma contamination test, an SNP test for confirming cell line identity, and barcode ID confirmation). Approved cell lines were then pooled (20–25 cell lines per pool) based on doubling time similarity and frozen in assay-ready vials.
RMC-6236 was added to 384-well plates at 8-point concentration with 3-fold dilutions in triplicate. These assay-ready plates were then seeded with the thawed cell line pools. Adherent cell pools were plated at 1,250 cells per well, whereas suspension and mixed adherent/suspension pools were plated at 2,000 cells per well. Treated cells were incubated for 5 days, and then lysed. Lysate plates were collapsed together prior to barcode amplification and detection.
Each cell line's unique barcode is located in the 3′UTR of the blasticidin-resistance gene and therefore is expressed as mRNA. Total mRNA was captured using magnetic particles that recognize polyA sequences. Captured mRNA was reverse-transcribed into cDNA and then the sequence containing the unique PRISM barcode was amplified using PCR. Finally, Luminex beads that recognize the specific barcode sequences in the cell set were hybridized to the PCR products and detected using a Luminex scanner which reports the signal as a median fluorescent intensity (MFI).
• Each detection well contained 10 control barcodes in increasing abundances as spike-in controls. For each plate, we first create a reference profile by calculating the median of the log2(MFI) values across negative control wells for each of these spiked-in barcodes. • For each well, a monotonic smooth p-spline was fitted to map the spike-in control levels to the reference profile. Next, we transform the log2(MFI) for each cell barcode using the fitted spline to allow well-to-well comparisons by correcting for amplification and detection artifacts. • Next, the separability between negative and positive control treatments was assessed. In particular, we calculated the error rate of the optimum simple threshold classifier between the control samples for each cell line and plate combination. The error rate is a measure of the overlap of the two control sets and was defined as error = (FP + FN)/n, where FP is false positives, FN is false negatives, and n is the total number of controls. A threshold was set between the distributions of positive and negative control log2(MFI) values (with everything below the threshold said to be positive and above said to be negative) such that this value is minimized. Additionally, we also calculated the dynamic range of each cell line. […] Additionally, any cell line that had less than 2 passing replicates was also omitted for the sake of reproducibility. Finally, we computed viability by normalizing with respect to the median negative control for each plate.
For every gene with nonsilent mutations in at least four cell lines, we compared the AUC values between cells with and without those mutations using a t test. This analysis was carried out for (i) the full data set; (ii) excluding cell lines with nonsilent KRAS mutations; and (iii) excluding cell lines that have either KRAS or NRAS nonsilent mutations.

## CCn1c(-c2cc(N3CCN(C)CC3)cnc2[C@H](C)OC)c2c3cc(ccc31)-c1csc(n1)C[C@H](NC(=O)[C@H]1C[C@@H]1C)C(=O)N1CCC[C@H](N1)C(=O)OCC(C)(C)C2 [RMC-6236]
MCC26_SKIN, HRAS p.G12D
  RMC-6236: RevMed PRISM: AUC: 1
MCC142_SKIN
  RMC-6236: RevMed PRISM: AUC: 0.9196
MCF7_BREAST
  RMC-6236: RevMed PRISM: AUC: 0.8891
MDAMB175VII_BREAST
  RMC-6236: RevMed PRISM: AUC: 0.5554
MDAMB435S_SKIN
  RMC-6236: RevMed PRISM: AUC: 0.9318
MDAMB436_BREAST
  RMC-6236: RevMed PRISM: AUC: 0.8987
MDAMB468_BREAST
  RMC-6236: RevMed PRISM: AUC: 0.776
MDST8_LARGE_INTESTINE
  RMC-6236: RevMed PRISM: AUC: 1
MEG01_HAEMATOPOIETIC_AND_LYMPHOID_TISSUE
  RMC-6236: RevMed PRISM: AUC: 0.468
MEL285_UVEA
  RMC-6236: RevMed PRISM: AUC: 0.709
MEL290_UVEA
  RMC-6236: RevMed PRISM: AUC: 0.9793
MELHO_SKIN
  RMC-6236: RevMed PRISM: AUC: 0.9942
MEWO_SKIN
  RMC-6236: RevMed PRISM: AUC: 0.7334
MFE296_ENDOMETRIUM
  RMC-6236: RevMed PRISM: AUC: 1
MFE319_ENDOMETRIUM
  RMC-6236: RevMed PRISM: AUC: 1
MHHES1_BONE
  RMC-6236: RevMed PRISM: AUC: 0.8742
MKN7_STOMACH
  RMC-6236: RevMed PRISM: AUC: 0.6783
MKN45_STOMACH
  RMC-6236: RevMed PRISM: AUC: 0.3943
MONOMAC6_HAEMATOPOIETIC_AND_LYMPHOID_TISSUE
  RMC-6236: RevMed PRISM: AUC: 0.7011
MPP89_PLEURA
  RMC-6236: RevMed PRISM: AUC: 0.9671
MS751_CERVIX
  RMC-6236: RevMed PRISM: AUC: 0.8009
MSTO211H_PLEURA
  RMC-6236: RevMed PRISM: AUC: 0.6789
NB1_AUTONOMIC_GANGLIA
  RMC-6236: RevMed PRISM: AUC: 0.681
NB4_HAEMATOPOIETIC_AND_LYMPHOID_TISSUE, KRAS p.A18D
  RMC-6236: RevMed PRISM: AUC: 0.6933
NCCIT_TESTIS
  RMC-6236: RevMed PRISM: AUC: 1
NCIH23_LUNG, KRAS p.G12C
  RMC-6236: RevMed PRISM: AUC: 0.6322
NCIH28_PLEURA
  RMC-6236: RevMed PRISM: AUC: 0.7774
NCIH82_LUNG
  RMC-6236: RevMed PRISM: AUC: 0.8641
NCIH196_LUNG
  RMC-6236: RevMed PRISM: AUC: 0.9944
NCIH211_LUNG
  RMC-6236: RevMed PRISM: AUC: 0.9486
NCIH322_LUNG
  RMC-6236: RevMed PRISM: AUC: 0.6812
NCIH358_LUNG, KRAS p.G12C
  RMC-6236: RevMed PRISM: AUC: 0.2807
NCIH441_LUNG, KRAS p.G12V
  RMC-6236: RevMed PRISM: AUC: 0.4143
NCIH460_LUNG, KRAS p.Q61H
  RMC-6236: RevMed PRISM: AUC: 0.4565
NCIH520_LUNG
  RMC-6236: RevMed PRISM: AUC: 0.994
NCIH596_LUNG
  RMC-6236: RevMed PRISM: AUC: 0.7582
NCIH647_LUNG, KRAS p.G13D
  RMC-6236: RevMed PRISM: AUC: 0.7687
NCIH650_LUNG, KRAS p.Q61L
  RMC-6236: RevMed PRISM: AUC: 0.7186
NCIH661_LUNG
  RMC-6236: RevMed PRISM: AUC: 0.8097
NCIH727_LUNG, KRAS p.G12V
  RMC-6236: RevMed PRISM: AUC: 0.5432
NCIH838_LUNG
  RMC-6236: RevMed PRISM: AUC: 0.8136
NCIH841_LUNG
  RMC-6236: RevMed PRISM: AUC: 0.9452
NCIH1048_LUNG, NRAS p.T20NfsTer11
  RMC-6236: RevMed PRISM: AUC: 0.7503
NCIH1299_LUNG, NRAS p.Q61K
  RMC-6236: RevMed PRISM: AUC: 0.6264
NCIH1341_LUNG
  RMC-6236: RevMed PRISM: AUC: 0.699
NCIH1437_LUNG
  RMC-6236: RevMed PRISM: AUC: 0.7539
NCIH1563_LUNG
  RMC-6236: RevMed PRISM: AUC: 0.7485
